Some of the results follow. Binding of human transcription factors and regulators to the viral nucleoprotein by AlphaScreen, crude cell-free proteins, amounts not normalised, one pass. Fold of the Venus control; higher = more signal. No active / inactive call. Single-pass screen; sequences are the whole Swiss-Prot entries looked up by name.
B1: TAF5, Q15542 (protein)
chain: MAALAEEQTEVAVKLEPEGPPTLLPPQAGDGAGEGSGGTTNNGPNGGGGNVAASSSTGGDGGTPKPTVAVSAAAPAGAAPVPAAAPDAGAPHDRQTLLAVLQFLRQSKLREAEEALRREAGLLEEAVAGSGAPGEVDSAGAEVTSALLSRVTASAPGPAAPDPPGTGASGATVVSGSASGPAAPGKVGSVAVEDQPDVSAVLSAYNQQGDPTMYEEYYSGLKHFIECSLDCHRAELSQLFYPLFVHMYLELVYNQHENEAKSFFEKFHGDQECYYQDDLRVLSSLTKKEHMKGNETMLDFRTSKFVLRISRDSYQLLKRHLQEKQNNQIWNIVQEHLYIDIFDGMPRSKQQIDAMVGSLAGEAKREANKSKVFFGLLKEPEIEVPLDDEDEEGENEEGKPKKKKPKKDSIGSKSKKQDPNAPPQNRIPLPELKDSDKLDKIMNMKETTKRVRLGPDCLPSICFYTFLNAYQGLTAVDVTDDSSLIAGGFADSTVRVWSVTPKKLRSVKQASDLSLIDKESDDVLERIMDEKTASELKILYGHSGPVYGASFSPDRNYLLSSSEDGTVRLWSLQTFTCLVGYKGHNYPVWDTQFSPYGYYFVSGGHDRVARLWATDHYQPLRIFAGHLADVNCTRFHPNSNYVATGSADRTVRLWDVLNGNCVRIFTGHKGPIHSLTFSPNGRFLATGATDGRVLLWDIGHGLMVGELKGHTDTVCSLRFSRDGEILASGSMDNTVRLWDAIKAFEDLETDDFTTATGHINLPENSQELLLGTYMTKSTPVVHLHFTRRNLVLAAGAYSPQ
B2: LMX1B, O60663 (protein)
chain: MDIATGPESLERCFPRGQTDCAKMLDGIKMEEHALRPGPATLGVLLGSDCPHPAVCEGCQRPISDRFLMRVNESSWHEECLQCAACQQALTTSCYFRDRKLYCKQDYQQLFAAKCSGCMEKIAPTEFVMRALECVYHLGCFCCCVCERQLRKGDEFVLKEGQLLCKGDYEKEKDLLSSVSPDESDSVKSEDEDGDMKPAKGQGSQSKGSGDDGKDPRRPKRPRTILTTQQRRAFKASFEVSSKPCRKVRETLAAETGLSVRVVQVWFQNQRAKMKKLARRHQQQQEQQNSQRLGQEVLSSRMEGMMASYTPLAPPQQQIVAMEQSPYGSSDPFQQGLTPPQMPGDHMNPYGNDSIFHDIDSDTSLTSLSDCFLGSSDVGSLQARVGNPIDRLYSMQSSYFAS
B3: NR1H4, Q96RI1 (protein)
chain: MVMQFQGLENPIQISPHCSCTPSGFFMEMMSMKPAKGVLTEQVAGPLGQNLEVEPYSQYSNVQFPQVQPQISSSSYYSNLGFYPQQPEEWYSPGIYELRRMPAETLYQGETEVAEMPVTKKPRMGASAGRIKGDELCVVCGDRASGYHYNALTCEGCKGFFRRSITKNAVYKCKNGGNCVMDMYMRRKCQECRLRKCKEMGMLAECMYTGLLTEIQCKSKRLRKNVKQHADQTVNEDSEGRDLRQVTSTTKSCREKTELTPDQQTLLHFIMDSYNKQRMPQEITNKILKEEFSAEENFLILTEMATNHVQVLVEFTKKLPGFQTLDHEDQIALLKGSAVEAMFLRSAEIFNKKLPSGHSDLLEERIRNSGISDEYITPMFSFYKSIGELKMTQEEYALLTAIVILSPDRQYIKDREAVEKLQEPLLDVLQKLCKIHQPENPQHFACLLGRLTELRTFNHHHAEMLMSWRVNDHKFTPLLCEIWDVQ
B4: E2F8, A0AVK6 (protein)
chain: MENEKENLFCEPHKRGLMKTPLKESTTANIVLAEIQPDFGPLTTPTKPKEGSQGEPWTPTANLKMLISAVSPEIRNRDQKRGLFDNRSGLPEAKDCIHEHLSGDEFEKSQPSRKEKSLGLLCHKFLARYPNYPNPAVNNDICLDEVAEELNVERRRIYDIVNVLESLHMVSRLAKNRYTWHGRHNLNKTLGTLKSIGEENKYAEQIMMIKKKEYEQEFDFIKSYSIEDHIIKSNTGPNGHPDMCFVELPGVEFRAASVNSRKDKSLRVMSQKFVMLFLVSTPQIVSLEVAAKILIGEDHVEDLDKSKFKTKIRRLYDIANVLSSLDLIKKVHVTEERGRKPAFKWTGPEISPNTSGSSPVIHFTPSDLEVRRSSKENCAKNLFSTRGKPNFTRHPSLIKLVKSIESDRRKINSAPSSPIKTNKAESSQNSAPFPSKMAQLAAICKMQLEEQSSESRQKVKVQLARSGPCKPVAPLDPPVNAEMELTAPSLIQPLGMVPLIPSPLSSAVPLILPQAPSGPSYAIYLQPTQAHQSVTPPQGLSPTVCTTHSSKATGSKDSTDATTEKAANDTSKASASTRPGSLLPAPERQGAKSRTREPAGERGSKRASMLEDSGSKKKFKEDLKGLENVSATLFPSGYLIPLTQCSSLGAESILSGKENSSALSPNHRIYSSPIAGVIPVTSSELTAVNFPSFHVTPLKLMVSPTSVAAVPVGNSPALASSHPVPIQNPSSAIVNFTLQHLGLISPNVQLSASPGSGIVPVSPRIESVNVAPENAGTQQGRATNYDSPVPGQSQPNGQSVAVTGAQQPVPVTPKGSQLVAESFFRTPGGPTKPTSSSCMDFEGANKTSLGTLFVPQRKLEVSTEDVH
B5: GREM1, O60565 (protein)
chain: MSRTAYTVGALLLLLGTLLPAAEGKKKGSQGAIPPPDKAQHNDSEQTQSPQQPGSRNRGRGQGRGTAMPGEEVLESSQEALHVTERKYLKRDWCKTQPLKQTIHEEGCNSRTIINRFCYGQCNSFYIPRHIRKEEGSFQSCSFCKPKKFTTMMVTLNCPELQPPTKKKRVTRVKQCRCISIDLD
B6: RHEBL1, Q8TAI7 (protein)
chain: MPLVRYRKVVILGYRCVGKTSLAHQFVEGEFSEGYDPTVENTYSKIVTLGKDEFHLHLVDTAGQDEYSILPYSFIIGVHGYVLVYSVTSLHSFQVIESLYQKLHEGHGKTRVPVVLVGNKADLSPEREVQAVEGKKLAESWGATFMESSARENQLTQGIFTKVIQEIARVENSYGQERRCHLM
B7: ANXA3, P12429 (protein)
chain: MASIWVGHRGTVRDYPDFSPSVDAEAIQKAIRGIGTDEKMLISILTERSNAQRQLIVKEYQAAYGKELKDDLKGDLSGHFEHLMVALVTPPAVFDAKQLKKSMKGAGTNEDALIEILTTRTSRQMKDISQAYYTVYKKSLGDDISSETSGDFRKALLTLADGRRDESLKVDEHLAKQDAQILYKAGENRWGTDEDKFTEILCLRSFPQLKLTFDEYRNISQKDIVDSIKGELSGHFEDLLLAIVNCVRNTPAFLAERLHRALKGIGTDEFTLNRIMVSRSEIDLLDIRTEFKKHYGYSLYSAIKSDTSGDYEITLLKICGGDD
B8: LHX1, P48742 (protein)
chain: MVHCAGCKRPILDRFLLNVLDRAWHVKCVQCCECKCNLTEKCFSREGKLYCKNDFFRCFGTKCAGCAQGISPSDLVRRARSKVFHLNCFTCMMCNKQLSTGEELYIIDENKFVCKEDYLSNSSVAKENSLHSATTGSDPSLSPDSQDPSQDDAKDSESANVSDKEAGSNENDDQNLGAKRRGPRTTIKAKQLETLKAAFAATPKPTRHIREQLAQETGLNMRVIQVWFQNRRSKERRMKQLSALGARRHAFFRSPRRMRPLVDRLEPGELIPNGPFSFYGDYQSEYYGPGGNYDFFPQGPPSSQAQTPVDLPFVPSSGPSGTPLGGLEHPLPGHHPSSEAQRFTDILAHPPGDSPSPEPSLPGPLHSMSAEVFGPSPPFSSLSVNGGASYGNHLSHPPEMNEAAVW
B9: RNF41, Q9H4P4 (protein)
chain: MGYDVTRFQGDVDEDLICPICSGVLEEPVQAPHCEHAFCNACITQWFSQQQTCPVDRSVVTVAHLRPVPRIMRNMLSKLQIACDNAVFGCSAVVRLDNLMSHLSDCEHNPKRPVTCEQGCGLEMPKDELPNHNCIKHLRSVVQQQQTRIAELEKTSAEHKHQLAEQKRDIQLLKAYMRAIRSVNPNLQNLEETIEYNEILEWVNSLQPARVTRWGGMISTPDAVLQAVIKRSLVESGCPASIVNELIENAHERSWPQGLATLETRQMNRRYYENYVAKRIPGKQAVVVMACENQHMGDDMVQEPGLVMIFAHGVEEI
B10: CARD14, Q9BXL6 (protein)
chain: MGELCRRDSALTALDEETLWEMMESHRHRIVRCICPSRLTPYLRQAKVLCQLDEEEVLHSPRLTNSAMRAGHLLDLLKTRGKNGAIAFLESLKFHNPDVYTLVTGLQPDVDFSNFSGLMETSKLTECLAGAIGSLQEELNQEKGQKEVLLRRCQQLQEHLGLAETRAEGLHQLEADHSRMKREVSAHFHEVLRLKDEMLSLSLHYSNALQEKELAASRCRSLQEELYLLKQELQRANMVSSCELELQEQSLRTASDQESGDEELNRLKEENEKLRSLTFSLAEKDILEQSLDEARGSRQELVERIHSLRERAVAAERQREQYWEEKEQTLLQFQKSKMACQLYREKVNALQAQVCELQKERDQAYSARDSAQREISQSLVEKDSLRRQVFELTDQVCELRTQLRQLQAEPPGVLKQEARTREPCPREKQRLVRMHAICPRDDSDCSLVSSTESQLLSDLSATSSRELVDSFRSSSPAPPSQQSLYKRVAEDFGEEPWSFSSCLEIPEGDPGALPGAKAGDPHLDYELLDTADLPQLESSLQPVSPGRLDVSESGVLMRRRPARRILSQVTMLAFQGDALLEQISVIGGNLTGIFIHRVTPGSAADQMALRPGTQIVMVDYEASEPLFKAVLEDTTLEEAVGLLRRVDGFCCLSVKVNTDGYKRLLQDLEAKVATSGDSFYIRVNLAMEGRAKGELQVHCNEVLHVTDTMFQGCGCWHAHRVNSYTMKDTAAHGTIPNYSRAQQQLIALIQDMTQQCTVTRKPSSGGPQKLVRIVSMDKAKASPLRLSFDRGQLDPSRMEGSSTCFWAESCLTLVPYTLVRPHRPARPRPVLLVPRAVGKILSEKLCLLQGFKKCLAEYLSQEEYEAWSQRGDIIQEGEVSGGRCWVTRHAVESLMEKNTHALLDVQLDSVCTLHRMDIFPIVIHVSVNEKMAKKLKKGLQRLGTSEEQLLEAARQEEGDLDRAPCLYSSLAPDGWSDLDGLLSCVRQAIADEQKKVVWTEQSPR

These binders were tested against nucleoprotein N of Crimean-Congo hemorrhagic fever virus (assay: AlphaScreen luminescence signal relative to Venus negative control (fold); higher = stronger binding to CCHFV N).
Experimental: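 AlphaScreen binding of cell-free made, FLAG-GST-tagged human transcription factors and regulators (crude translation products) to biotinylated N protein; signal as fold of the FLAG-GST-Venus control. One pass.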
Binder B1 has an AlphaScreen luminescence signal of 8.93. B2 was tested, and the AlphaScreen luminescence signal was 3.49. B3 showed an AlphaScreen luminescence signal of 2.28. B4 was tested, and the AlphaScreen luminescence signal was 2.33. Work on B5 yielded an AlphaScreen luminescence signal of 2.33. Binder B6 has an AlphaScreen luminescence signal of 1.4. Binder B7 has an AlphaScreen luminescence signal of 1.07. Binder B8 has an AlphaScreen luminescence signal of 2.14. For B9, the AlphaScreen luminescence signal was 4.19. For B10, the AlphaScreen luminescence signal was 1.72.

— the supplement of paper PMC12423691
